Out of some 340,000 compounds screened, about 12,000 (3.5%) were called active. Inconclusive results, whose numbers are uncertain, are shown with a selection of clear calls. The call rests on the fitted dose curve; in most records, active means well fitted inhibition curve with a large enough effect; inconclusive means small, poorly fitted or top-dose-only effect, or another doubt; inactive means no such curve, though single readings can be large or run the other way. No potency is given beside an inconclusive call; the fits are too rough.
Experiment: qHTS Assay for Inhibitors of Hepatitis C Virus (HCV)
Settings: Huh7.5.1 HCVcc-Cre (HCVcc is cell-culture hepatitis C virus) infection, luciferase reporter, 44 h; activity change, negative = inhibition: at 41.8 µM (top of the series) unless noted
Procedure, shortened: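 Seed cells (1,000/well) for 4 h; treat with compound and infect with HCVcc-Cre, moi about 0.5. Incubate 44 h, then detect luciferase activity.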
On the % scale 0 is the no-effect control and ±100 the full control effect; potency means the concentration at half of the fitted maximal effect; tags describe the fitted curve by direction and shape.

Row | Structure (SMILES) | Potency | activity change, negative = inhibition
1 | O=C(CN1CCCC1)Nc1c2c(cc3c1CCC3)CCC2 | inconclusive [inhibitor, single point] | –
2 | O=C(COC(=O)/C=C/c1ccccc1)NCCNC(=O)COC(=O)/C=C/c1ccccc1 | inconclusive [inhibitor, single point] | –
3 | C#CC[N+](C)(C)C(C#Cc1ccccc1)CC=C (stereo not given) | – | inactive: 20.2%
4 | COc1ccc(OC)c(C(c2nnnn2CCc2ccccc2)N2CCN(c3ccccc3)CC2)c1 (stereo not given) | inconclusive [inhibitor, single point] | –
5 | CCc1ccc(NC(=O)CCn2cccc2)cc1 | – | inactive: -0.766%
6 | COc1ccccc1NC(=O)C/C(N)=N/OCC(=O)Nc1cccc(Cl)c1 | inconclusive [inhibitor, single point] | –
7 | CC1CCC(C(C)C)C(OC(=O)CSc2nccc(=O)[nH]2)C1 (stereo not given) | – | inactive: 1.99%
8 | COc1ccccc1NS(=O)(=O)c1ccc(/C=C/C(=O)N2CCN(C(C)=O)CC2)cc1 | – | inactive: 18.6%
9 | CCC(=O)N1CCN(c2ccc(NC(=O)c3cc4ccccc4o3)cc2Cl)CC1 | active: 11.2 µM | –
10 | Cc1ccc(S(=O)(=O)N(C)c2ccc(C(=O)Nc3ccc(C)cn3)cc2)cc1 | active: 5.01 µM | –
11 | CCOCCn1c(SCc2c(F)cccc2Cl)nc2c1c(=O)[nH]c(=O)n2C | inconclusive [inhibitor, single point] | –
12 | C=CC(=O)N1CCCC(Nc2nc(Nc3ccc(N(C)C(=O)CC)cc3C)nc3nc[nH]c23)C1 (stereo not given) | – | inactive: -4.07%
13 | CCN(CC)S(=O)(=O)c1ccc(Cl)c(C(=O)Nc2ccc(Cl)cc2[N+](=O)[O-])c1 | inconclusive [inhibitor, partial curve] | –
14 | OC(CNC1CCCC1)COc1ccc(-c2ccccc2)cc1 (stereo not given) | inconclusive [inhibitor, single point] | –
15 | CC(CNC(=O)CCc1nnc2ccc(N3CCC4(CC3)OCCO4)nn12)c1ccccc1 (stereo not given) | inconclusive [inhibitor, single point] | –
16 | CN(CC(=O)Nc1ccc(OC(F)(F)F)cc1)C(=O)Cc1c(Cl)cccc1Cl | inconclusive [inhibitor, partial curve] | –
17 | CCCCCN(C(=O)CCC(=O)OCC(=O)c1cccc(OC)c1)c1c(N)n(CCCC)c(=O)[nH]c1=O | – | inactive: 5.08%
18 | COc1cccc(NC(=O)Nc2ccc3nc(C)c(C)nc3c2)c1 | inconclusive [inhibitor, partial curve] | –
19 | COC(=O)C1=C(c2ccccc2)C[C@@H]2CC[C@H]1N2C(=O)NC1CC1 | – | inactive: 9.24%
20 | O=C(Cn1cnc2ccccc2c1=O)c1ccc(Br)cc1 | – | inactive: -16.6%
21 | CNCC(O)C(O)C(O)C(O)CO (stereo not given) | inconclusive [inhibitor, partial curve, poor fit] | –
22 | Cc1nc(-n2nnc3ccccc32)c2c3c(sc2n1)CCCC3 | inconclusive [inhibitor, single point] | –
23 | Cc1nc(NC(=S)NC(=O)c2ccco2)sc1C(=O)N(C)C | – | inactive: 14.4%
24 | Cc1cc(Oc2ccccc2)nc(SCC(=O)Nc2ccc(Cl)cc2Cl)n1 | inconclusive [inhibitor, single point] | –

Row | Structure (SMILES) | Potency | activity change, negative = inhibition
25 | COC(=O)c1sc(N2CCN(c3ccc(Cl)cc3)CC2)nc1N | inconclusive [inhibitor, single point] | –
26 | COc1cccc(/C=N/NC(=O)c2[nH]c(C)c(C(=O)N/N=C/c3cccc(OC)c3)c2C)c1 | active: 10 µM | –
27 | O=C(NCCSCc1c(F)cccc1Cl)c1ccc(CN2CCOCC2)cc1 | inconclusive [inhibitor, single point] | –
28 | COCCCNc1nc(-c2ccncc2)nc2ccccc12 | active: 11.2 µM | –
29 | CCc1cc2c(N[C@@H](C)C(=O)O)ncnc2s1 | inconclusive [inhibitor, single point] | –
30 | Cc1nc2ccccc2c(=O)n1/N=C/c1ccco1 | – | inactive: 13.5%
31 | C[C@]12CC[C@@H]3c4cc(O)c(O)cc4CC[C@H]3[C@@H]1CC[C@@H]2O | active: 12.6 µM | –
32 | CN(C)/N=C/c1ccc(P(c2ccc(/C=N/N(C)C)o2)c2ccc(/C=N/N(C)C)o2)o1 | inconclusive [inhibitor, single point] | –
33 | c1ccc2c(c1)nc1sccn12 | inconclusive [inhibitor, single point] | –
34 | Cc1cc(C)cc(NC(=S)NN)c1 | – | inactive: 7.27%
35 | O=C1C(Cc2ccccc2O)NC(=S)N1c1ccccc1 (stereo not given) | inconclusive [inhibitor, single point] | –
36 | Cc1cccc(NC(=O)c2ccc(Cl)c(S(=O)(=O)N3CCCCC3)c2)n1 | inconclusive [inhibitor, single point] | –
37 | COc1ccccc1CCNC(=O)c1cc(COc2cccc(C(F)(F)F)c2)on1 | inconclusive [inhibitor, single point] | –
38 | Cc1onc(-c2ccccc2)c1C(=O)NNC(=S)NC(=O)/C=C/c1ccccc1 | inconclusive [inhibitor, partial curve] | –
39 | Cc1ccc(CN2CCN(Cc3cccc4c3OCO4)CC2CCO)cc1 (stereo not given) | – | inactive: 14.5%
40 | Cc1ccccc1/C(N)=N/OC(=O)c1cccs1 | inconclusive [inhibitor, partial curve] | –
41 | CCOc1cc(NC(=O)c2ccccn2)c(OCC)cc1NC(=O)c1ccc(OC)cc1 | inconclusive [inhibitor, partial curve] | –
42 | CCOc1ccccc1C(=O)NC(C)c1ccc2c(c1)OCO2 (stereo not given) | inconclusive [inhibitor, single point] | –
43 | C/C=C/C=C\C(=O)Nc1cccc(C2=NOC3(C2)C[C@@H](C(N)=O)N(C(=O)c2cc([N+](=O)[O-])cc([N+](=O)[O-])c2C)C3)c1 (stereo not given in full) | inconclusive [inhibitor, partial curve] | –
44 | COc1ccc(NC(=O)CSc2nc3ccc(Nc4nc(N5CCOCC5)nc(N5CCOCC5)n4)cc3s2)cc1 | active: 10 µM | –
45 | Cc1ccccc1C(=O)NC(=S)Nc1ccccc1[N+](=O)[O-] | inconclusive [inhibitor, single point] | –
46 | NC(N)=NS(=O)(=O)c1ccc(NC(=S)NC(=O)/C=C/c2ccco2)cc1 | – | inactive: 25.1%
47 | COc1ccc(OCCC(=O)OCC(=O)NC2CCCCC2)cc1 | – | inactive: 18.1%
48 | O=C1CC(c2ccc(Cl)cc2)CC(O)=C1C=NCCO (stereo not given) | – | inactive: -5.05%

Row | Structure (SMILES) | Potency | activity change, negative = inhibition
49 | CCOc1cc(S(=O)(=O)NCc2ccncc2)ccc1Cl | inconclusive [inhibitor, partial curve, poor fit] | –
50 | C=CC[C@@H](CC(=O)N(CCO)Cc1ccccc1)C(=O)N[C@H](COC(=O)[C@@H](CC=C)CC(=O)OC(C)(C)C)C(C)(C)C | inconclusive [inhibitor, partial curve] | –
51 | COc1ccc(OCc2nnc(SCC(=O)N3CCCc4ccccc43)n2-c2ccc(C)cc2)cc1 | active: 10 µM | –
52 | COC(=O)C1=C(C)N(c2cccc3ccccc23)C(=O)C1 | inconclusive [inhibitor, single point] | –
53 | COc1ccc(NC(=O)CCC2CCCC2)cc1OC | inconclusive [inhibitor, single point] | –
54 | Cc1ccc(NC(=O)/C(C#N)=C/c2ccsc2)c(C)c1 | – | inactive: 13.4%
55 | CN(CC(=O)Nc1ccc(Cl)c(C(F)(F)F)c1)C(=O)c1cc(-c2ccncc2)nc2ccccc12 | inconclusive [inhibitor, partial curve] | –
56 | COc1ccc(C(=O)Oc2cccc(Nc3ncnc4ccccc34)c2)cc1OC | inconclusive [inhibitor, full curve] | –
57 | Cc1sc(NC(=O)C2C3CCC(O3)C2C(=O)O)nc1-c1ccc(CC(C)C)cc1 (stereo not given) | inconclusive [inhibitor, single point] | –
58 | O=C(Nc1ccc(OC(F)(F)F)cc1)c1ccc2c(c1)no[n+]2[O-] | active: 31.6 µM | –
59 | CN(C)/C=N/c1c(C#N)cnn1-c1ncnc2sc(-c3ccccc3)cc12 | inconclusive [inhibitor, single point] | –
60 | COc1cc(-c2nc(-c3ccccc3)c(-c3cccs3)[nH]2)cc(OC)c1OC | active: 22.4 µM | –
61 | Cc1ccc(S(=O)(=O)N2CCCCC2)cc1NC(=O)CCCOc1ccccc1 | active: 10 µM | –
62 | CCOCCCNC(=O)c1cc(Sc2ccc(C)cc2)nc2ccccc12 | inconclusive [inhibitor, full curve] | –
63 | Cc1ncc(CO)c2cc(C(=O)Nc3cccc(F)c3)c(=Nc3cccc(C(N)=O)c3)oc12 | inconclusive [inhibitor, partial curve, poor fit] | –
64 | COc1cccc(Nc2nc(N)c([N+](=O)[O-])c(NCc3ccccc3)n2)c1 | inconclusive [inhibitor, single point] | –
65 | CC(C)CNC(=O)c1cccc(Cn2cc(Cl)cn2)c1 | – | inactive: -2.97%
66 | Clc1ccc(CSc2ncnc3c2ncn3C2CCCCO2)cc1 (stereo not given) | inconclusive [inhibitor, single point] | –
67 | CCOC(=O)/C=C/C(=O)Nc1ccccc1-c1ccccc1NC(=O)/C=C/C(=O)OCC | active: 12.6 µM | –
68 | Cc1ccccc1C(=O)N1CCC(C(=O)Nc2ccc(S(=O)(=O)N3CCCCC3)cc2)CC1 | active: 12.6 µM | –
69 | Cc1cccc(OCC(=O)Nc2cccc(-c3nnc(-c4ccccc4)o3)c2)c1C | inconclusive [inhibitor, partial curve] | –
70 | O=C(c1ccc2ccccc2c1)N1CCN(c2ccc([N+](=O)[O-])c(N3CCOCC3)c2)CC1 | inconclusive [inhibitor, partial curve] | –
